The experiment has as its target T1, Galectin-3-binding protein (endogenous, TS603 cells) (Homo sapiens, UniProt Q08380 19-585).
T1 construct: Endogenous protein in the TS603 patient GBM neurosphere line; also called Gal3BP
T1 sequence: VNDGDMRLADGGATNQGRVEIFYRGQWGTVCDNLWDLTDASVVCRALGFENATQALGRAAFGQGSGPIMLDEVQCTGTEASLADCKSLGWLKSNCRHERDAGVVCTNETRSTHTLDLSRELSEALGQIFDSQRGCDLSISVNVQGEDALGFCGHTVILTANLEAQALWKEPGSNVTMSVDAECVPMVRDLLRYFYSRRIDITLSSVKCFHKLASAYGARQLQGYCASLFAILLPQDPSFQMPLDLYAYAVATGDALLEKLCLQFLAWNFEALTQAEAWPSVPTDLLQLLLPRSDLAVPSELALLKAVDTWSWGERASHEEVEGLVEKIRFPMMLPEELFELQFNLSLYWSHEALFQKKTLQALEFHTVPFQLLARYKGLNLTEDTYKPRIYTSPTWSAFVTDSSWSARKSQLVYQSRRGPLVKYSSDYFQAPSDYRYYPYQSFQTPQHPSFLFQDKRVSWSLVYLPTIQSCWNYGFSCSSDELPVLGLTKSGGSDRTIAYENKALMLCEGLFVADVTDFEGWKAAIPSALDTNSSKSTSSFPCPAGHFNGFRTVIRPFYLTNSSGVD
The experiment is described as follows: Co-IP from TS603 CHI3L1_V5_OE + LC-MS; table headed 'Candidates that interact with CHI3L1 by liquid chromatography-mass spectrometry (LC-MS) assay'.

B1: V5-tagged CHI3L1 overexpressed in TS603 cells (other)
chain: YKLVCYYTSWSQYREGDGSCFPDALDRFLCTHIIYSFANISNDHIDTWEWNDVTLYGMLNTLKNRNPNLKTLLSVGGWNFGSQRFSKIASNTQSRRTFIKSVPPFLRTHGFDGLDLAWLYPGRRDKQHFTTLIKEMKAEFIKEAQPGKKQLLLSAALSAGKVTIDSSYDIAKISQHLDFISIMTYDFHGAWRGTTGHHSPLFRGQEDASPDRFSNTDYAVGYMLRLGAPASKLVMGIPTFGRSFTLASSETGVGAPISGPGIPGRFTKEAGTLAYYEICDFLRGATVHRILGQQVPYATKGNQWVGYDDQESVKSKVQYLKDRQLAGAMVWALDLDDFQGSFCGQDLRFPLTNAIKDALAAT
notes: also called TS603 CHI3L1_V5_OE; TS603-V5-CHI3L1; not shown: V5 tag
For the molecule B1, the binding result is “binds”.

For the origin of these results see patent publication US20240156901A1 (UNIVERSITY OF PITTSBURGH OF THE COMMONWEALTH SYSTEM OF …, published 2024).
